In all, about 110,000 compounds went through this assay and about 230 (0.21%) showed an effect of 50% or more. This is one part of the list.
Biological target: DPAP1 (Plasmodium falciparum, UniProt Q8IIJ9)
Test: primary screen, percent inhibition; read by cleavage of a fluorogenic dipeptide substrate; higher = more effect of the substance
Parameters: species or system P. falciparum D10 trophozoite lysates; single well
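Also: 30 min substrate incubation versus DMSO and 10 µM JCP410 controls.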

DPAP1, sequence (Q8IIJ9 whole entry, looked up): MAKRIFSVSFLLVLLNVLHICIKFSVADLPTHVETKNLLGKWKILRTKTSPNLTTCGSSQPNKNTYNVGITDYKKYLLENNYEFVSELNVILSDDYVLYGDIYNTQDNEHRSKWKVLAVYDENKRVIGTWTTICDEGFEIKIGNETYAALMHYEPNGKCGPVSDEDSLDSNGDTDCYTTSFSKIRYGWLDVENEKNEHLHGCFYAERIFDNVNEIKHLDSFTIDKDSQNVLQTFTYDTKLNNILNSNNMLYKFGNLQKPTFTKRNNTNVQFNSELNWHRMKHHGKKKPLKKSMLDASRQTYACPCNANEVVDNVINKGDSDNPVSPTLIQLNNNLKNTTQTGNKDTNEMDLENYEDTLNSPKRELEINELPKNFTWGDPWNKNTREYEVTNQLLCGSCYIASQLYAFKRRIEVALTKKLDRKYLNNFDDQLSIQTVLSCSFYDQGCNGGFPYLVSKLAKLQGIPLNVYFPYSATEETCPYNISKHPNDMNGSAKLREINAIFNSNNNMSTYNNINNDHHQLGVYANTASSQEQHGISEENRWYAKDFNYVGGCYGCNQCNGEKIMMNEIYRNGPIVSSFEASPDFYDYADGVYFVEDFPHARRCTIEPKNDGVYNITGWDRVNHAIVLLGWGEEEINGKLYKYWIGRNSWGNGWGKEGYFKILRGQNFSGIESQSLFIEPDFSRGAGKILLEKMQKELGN

Point of comparison: COc1ccc(CSc2ncnc3c2sc2nc4c(cc23)COC(C)(C)C4)cc1, “% Inhibition @ 10 uM” value -4.85%. Against it:
- O=NN1CCN(c2ccncc2S(=O)(=O)N2CCCCC2)CC1 — higher, -4.52%
- CC(C(=O)N(C)Cc1ccccc1)n1ccc2cc(S(=O)(=O)N3CCCCCC3)ccc21 (stereo not drawn) — higher, -4.19%
- CCOc1cc(/C=C(/C#N)c2nc(-c3ccc(OC)cc3)cs2)ccc1O — higher, -3.26%
- CCN(Cc1ccccc1)C(=O)Cn1c(SCc2ccc(C)cc2)nc2cccnc21 — higher, -0.613%
- Cc1cc(C)n(-c2nc(NC(C)(C)C)nc(N3CCOCC3)n2)n1 — higher, 2.05%
- O=C(Nc1ccncc1)c1ccc(CNS(=O)(=O)c2cccc(C(F)(F)F)c2)cc1 — higher, 4.11%
- O=C1NC(c2cccc(F)c2)=N/C1=C\C=C\c1ccccc1 — higher, 0.64%
- CC(c1ccc(C2CC2C2CC2)o1)c1ccc(C2CC2C2CC2)o1 (stereo not drawn) — higher, 3.06%
- O=C(NCCc1ccccc1)c1ccc(NS(=O)(=O)c2cccc(F)c2)cc1 — lower, -9.26%
- CCOC(=O)c1c(C)oc2ccc(O)cc12 — higher, -0.128%
- O=C(CNS(=O)(=O)c1ccc(Br)s1)N1CC=C(c2ccccc2)CC1 — higher, 3.27%
- O=C(c1ccccc1)N(Cc1ccccc1)[C@H]1C[C@@H]1c1ccccc1 — higher, -2.42%
- Cc1ccc(-c2cc(C(=O)NCc3ccc(S(N)(=O)=O)cc3)c3ccccc3n2)cc1 — higher, -2.3%
- Cc1ccccc1NC(=O)c1ccc([N+](=O)[O-])cc1C(=O)O — higher, 0.00784%
- Cn1nc(C(=O)Nc2cccnc2)c2c1-c1ccccc1SC2 — higher, 33.9%
- CC(C)=C1C2CCC1C(C(=O)Nc1ccc(C)c(C)c1)C2C(=O)O (stereo not drawn) — higher, -0.994%
- CCNC(=O)N(C)Cc1nc(-c2ccc(OC)c(OC)c2)no1 — higher, -3.49%
- C=C1c2ccccc2NC(=O)N1c1ccc(Cl)c(Cl)c1 — higher, -1.55%
- CC1(C)CC(=O)C(/C=N/c2ccccc2C(N)=O)=C(O)C1 — higher, -4.48%
- CCC(C)NC(=O)C1c2ccccc2C(=O)N(C2CCCC2)C1c1cccs1 (stereo not drawn) — higher, -0.825%
- CCn1cc(/C=C(\NC(=O)c2ccccc2F)C(=O)NCc2ccco2)c2ccccc21 — higher, -3.52%
- CCCCCOc1ccc(/C=C/C(=O)NCc2ccco2)cc1OC — higher, 10.6%
- Oc1c2c(nc3nc(COc4ccccc4)nn13)CCC2 — higher, 2.62%
- CCN(CCCNC(=O)Cn1ncc2c1-c1cc(C)ccc1OC2)Cc1ccccc1 — higher, -0.0881%
- Cc1cc(N2CCCCC2)c(F)cc1C(=O)c1ccccc1 — higher, 4.26%
- Cc1ccc(CN2CCN(CC(=O)NC(C)c3ccc4c(c3)OCCO4)C2=O)cc1 (stereo not drawn) — higher, 3.93%
